PubChem BioAssay AID504832 (National Center for Advancing Translational Sciences (NCATS), 2011)
In all, about 310,000 compounds went through this assay and about 18,000 (5.8%) were called active. Inconclusive means that the source gave no clear call. Such entries were picked first, then a sample of the others. Calls follow the shape of the dose curve; as a rule, active = well fitted inhibition curve with a large enough effect; inconclusive = small, poorly fitted or top-dose-only effect, or another doubt; inactive = no such curve, though single readings can be large or run the other way. Potencies of inconclusive entries are left out as doubtful fits.
% is scaled to controls: 0 for no effect and ±100 for the full control effect; potency is read from the fitted curve at half-maximal effect; tags tell the direction and shape of the fitted curve.

Test: Primary qHTS for delayed death inhibitors of the malarial parasite plastid, 48 hour incubation
Settings: P. falciparum luciferase growth in erythrocytes; series mostly up to 28.7 µM; activity change, negative = inhibition: at the top concentration
In short: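 A one-generation exposure of luciferase-tagged malaria parasites in RPMI 1640/Albumax erythrocyte culture, 37 C and 5% CO2. Inhibition is inferred from decreased luminescence after adding detection reagent.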
In the case of `CC(=O)c1cccc(NCC(=O)c2ccc(C)c([N+](=O)[O-])c2)c1`, the Potency is reported as inconclusive [inhibitor, partial curve, poor fit]. For `COc1cccc(OCCn2cc(C(C)=O)c3ccccc32)c1`, the Potency was active: 9.28 µM. With `Cc1cc(C)n(C(=O)c2ccc(C)c(F)c2F)n1` the “activity change, negative = inhibition” value was inactive: 6.86%. With `COc1cc2c(cc1OC)CN(C(=O)CNC(=O)c1ccc(OC(F)F)cc1)CC2` the “activity change, negative = inhibition” value was inactive: -4.19%. With `CCOC(=O)Cc1csc(NC(=S)NC(=O)c2ccc(F)cc2)n1` the Potency was inconclusive [inhibitor, partial curve]. With `Cc1cc(C)cc(C(=O)NCCCN2CCOCC2)c1` the “activity change, negative = inhibition” value was inactive: 12.6%. With `Cc1cccc(NC(=O)CN(CC2CCCO2)C(=O)c2oc3ccccc3c2C)c1C` (stereo unspecified) the Potency was inconclusive [inhibitor, full curve, poor fit]. In the case of `O=C(Nc1cccc([N+](=O)[O-])c1)C1CCN(C(=O)Cc2ccccc2)CC1`, the Potency is reported as inconclusive [inhibitor, partial curve, poor fit]. For `Cn1ncc2c(Nc3ccc(Cl)cc3)ncnc21`, the “activity change, negative = inhibition” value was inactive: 47.2%. In the case of `NC(=O)CC(NC(=O)Cc1ccc(Br)cc1)c1ccc(NCc2cc(F)ccc2F)c([N+](=O)[O-])c1` (stereo unspecified), the Potency is reported as inconclusive [inhibitor, partial curve, poor fit]. With `COc1ccc(CN2C(=O)C(O)(CC(=O)c3c(C)n[nH]c3C)c3ccccc32)cc1OC` (stereo unspecified) the Potency was inconclusive [inhibitor, partial curve, poor fit]. In the case of `Cc1ccc(OC(F)F)c(NC(=O)Nc2cccc(C(F)(F)F)c2)c1`, the Potency is reported as inconclusive [inhibitor, single point]. With `COc1cc2c(cc1OC)C(C)N(S(=O)(=O)c1cnc(Cl)c(Cl)c1)CC2` (stereo unspecified) the Potency was inconclusive [inhibitor, single point]. With `O=C1NC2(CCOc3ccccc32)C(=O)N1CC(=O)N(Cc1ccccc1)C1CCS(=O)(=O)C1` (stereo unspecified) the Potency was inconclusive [inhibitor, partial curve, poor fit]. With `O=C(NCc1nc2ccccc2[nH]1)C1=C[C@@H](c2csc3ccccc23)C[C@@H](OCCCCO)O1` the Potency was active: 2.62 µM. For `COc1ccc2c(c1)c(=O)c(C(=O)c1ccc(C)cc1)cn2CC(=O)Nc1ccc(F)cc1`, the Potency was inconclusive [inhibitor, single point]. For `N#CC1(C#N)CC(C=O)=C(N)C1(C#N)CC(=O)C12CC3CC(CC(C3)C1)C2` (stereo unspecified), the Potency was inconclusive [inhibitor, single point]. With `CCOC(=O)N1CCN(C(=O)CN(c2ccc(C)c(C)c2)S(=O)(=O)c2ccccc2)CC1` the Potency was inconclusive [inhibitor, single point]. For `CCCc1nc2ccc(NC(=O)NCCC(=O)OCC)cc2c(=O)n1Cc1ccc(Cl)cc1`, the Potency was inconclusive [inhibitor, single point]. For `COc1ccc(/C=C2\CCCC3C2=NN(C(=O)CSc2ncn[nH]2)C3c2ccc(OC)cc2)cc1` (stereo unspecified), the Potency was inconclusive [inhibitor, partial curve, poor fit]. In the case of `CCOc1ccc(N2C=Nc3ccc(OCC)cc3C2)cc1`, the Potency is reported as inconclusive [inhibitor, single point]. With `Cc1ccc(Nc2nnc(SCC(=O)NC3CC3)s2)cc1` the Potency was inconclusive [inhibitor, single point]. In the case of `Cc1ccc(S(=O)(=O)N2CCCCC2)cc1NC(=O)c1nn(C)c(=O)c2ccccc12`, the Potency is reported as inconclusive [inhibitor, full curve]. For `Cc1cc(C)cc(C(=O)N2CCN=C2SCc2ccc([N+](=O)[O-])cc2)c1`, the Potency was inconclusive [inhibitor, single point]. With `Oc1ccc(C2=Nn3c(nnc3-c3ccco3)SC2)cc1O` the Potency was inconclusive [inhibitor, single point]. In the case of `COc1ccc(CN(C)CC2CCCN(CCc3ccc(F)cc3)C2)c(OC)c1OC` (stereo unspecified), the Potency is reported as inconclusive [inhibitor, single point]. With `O=C(Cn1ncc(N2CCOCC2)c(Cl)c1=O)c1ccc(Cl)cc1` the “activity change, negative = inhibition” value was inactive: 37.1%. With `N#CC1(c2ccccc2)CCCN1C(=O)c1ccc(Br)o1` (stereo unspecified) the “activity change, negative = inhibition” value was inactive: -29.7%. With `C=CCN1C(=S)CC(c2ccccc2)=Nc2ccccc21` the Potency was inconclusive [inhibitor, full curve, poor fit]. With `O=C(O)c1ccc(Cl)c(S(=O)(=O)Nc2ccccc2C(=O)Nc2ccc(Cl)cc2)c1` the “activity change, negative = inhibition” value was inactive: 35.4%. In the case of `CC(=O)c1sc2nsc(SCCN3CCCC3)c2c1N`, the Potency is reported as inconclusive [inhibitor, single point]. For `COc1ccc(N2CCN(C(CNC(=O)c3ccc4c(c3)OCO4)c3cccnc3)CC2)cc1` (stereo unspecified), the “activity change, negative = inhibition” value was inactive: -9.92%. For `CCCNC(=O)c1ccc(COc2ccc(C(C)(C)C)cc2)o1`, the Potency was inconclusive [inhibitor, single point]. With `N#CCOc1nc(N2CCCCC2)nc(N2CCCCC2)n1` the “activity change, negative = inhibition” value was inactive: 3.4%. In the case of `COc1ccc(OC)c(/C=C/C(=O)OCC(=O)Nc2ccc(Cl)c(S(=O)(=O)N(C)C)c2)c1`, the Potency is reported as inconclusive [inhibitor, partial curve, poor fit]. With `COC(=O)C1=C(C)NC2=C(C(=O)c3ccccc32)C1c1ccc(-c2ccc(C(=O)O)cc2)o1` (stereo unspecified) the Potency was inconclusive [inhibitor, single point]. In the case of `CCCn1c2ccccc2c2nnc(SCC(=O)Nc3c(C)n(C)n(-c4ccccc4)c3=O)nc21`, the Potency is reported as inconclusive [inhibitor, partial curve, poor fit]. In the case of `CCCCn1cc(S(=O)(=O)c2ccccc2)c(=O)c2cc(C)ccc21`, the Potency is reported as inconclusive [inhibitor, single point]. With `CC(C)OCCCNc1ncnc2c1cnn2-c1ccccc1` the Potency was inconclusive [inhibitor, partial curve, poor fit]. In the case of `Nc1nonc1-n1nnc(C(=O)N/N=C/c2ccc3c(c2)OCO3)c1-c1ccccc1`, the Potency is reported as inconclusive [inhibitor, partial curve]. For `O=C1C=C(c2cccc(Br)c2)C[C@@H](c2ccc3c(c2)OCO3)C1`, the Potency was active: 4.65 µM. With `Cc1ccc(CNC(=O)CCCOc2cc(=O)n(C)c3ccccc23)o1` the Potency was inconclusive [inhibitor, single point]. For `O=C(COc1ccc([N+](=O)[O-])cc1)N/N=C/c1cc([N+](=O)[O-])ccc1N1CCOCC1`, the “activity change, negative = inhibition” value was inactive: -21.3%. For `O=C(c1ccc(Cl)c([N+](=O)[O-])c1)N(Cc1ccc(Cl)cc1)C1CCS(=O)(=O)C1` (stereo unspecified), the “activity change, negative = inhibition” value was inactive: -8.14%. With `CC(C)c1ccc(N(CC(=O)NCC2CCCO2)C(=O)Cn2nnc(-c3cccs3)n2)cc1` (stereo unspecified) the Potency was inconclusive [inhibitor, single point]. In the case of `O=C(c1ccc(Cl)cc1)N1CCN(S(=O)(=O)/C=C/c2ccccc2)CC1`, the Potency is reported as inconclusive [inhibitor, single point]. In the case of `Cc1ccccc1N(C)C(=O)C1CCCN(c2ncnc3c2nc2n3CCCCC2)C1` (stereo unspecified), the Potency is reported as inconclusive [inhibitor, partial curve]. In the case of `O=C(NC(=S)NCc1ccco1)c1ccccc1`, the “activity change, negative = inhibition” value is reported as inactive: 3.89%. For `Cc1c(NC(=O)CSc2nnc(-c3ccco3)n2-c2ccccc2)c(=O)n(-c2ccccc2)n1C`, the Potency was inconclusive [inhibitor, partial curve, poor fit]. In the case of `Cc1c(NC(=O)COc2cccc(Br)c2)c(=O)n(-c2ccccc2)n1C`, the “activity change, negative = inhibition” value is reported as inactive: 8.83%. With `O=C(O)c1nn(CC(=O)N2CCN(S(=O)(=O)c3ccc(Cl)cc3)CC2)c(=O)c2ccccc12` the “activity change, negative = inhibition” value was inactive: 0%. In the case of `COc1cc(C)ccc1N(CCCN1C(=O)c2cccc3cccc(c23)C1=O)C(=O)c1cccs1`, the Potency is reported as inconclusive [inhibitor, partial curve, poor fit]. In the case of `Nc1c(-c2nn[nH]n2)cnn1-c1cc(Cl)cc(Cl)c1`, the “activity change, negative = inhibition” value is reported as inactive: 12.6%. In the case of `COc1ccccc1N1C(=O)C2C(C(=O)c3ccccc3)=NN(c3ccc(Br)cc3)C2C1=O` (stereo unspecified), the Potency is reported as inconclusive [inhibitor, single point]. For `Cc1cc(/C=N/NC(=O)c2ccsc2)c(C)n1-c1cnccn1`, the “activity change, negative = inhibition” value was inactive: 16.3%. With `COc1ccc(NS(=O)(=O)c2cc(-c3cnc(C4CC4)o3)ccc2C)cc1` the Potency was inconclusive [inhibitor, single point]. In the case of `CCOc1cc(/C=N/Nc2ncc(C)c(=O)[nH]2)ccc1O`, the “activity change, negative = inhibition” value is reported as inactive: -28%. For `CCOc1ccc(NC(=O)COc2cccc3c2CCN(Cc2cccnc2)C3=O)cc1`, the Potency was active: 11.7 µM. For `Cc1ccc(C2=NN(C(=O)CCC(=O)O)C(c3cn(-c4ccccc4)nc3-c3ccc(C)cc3)C2)cc1` (stereo unspecified), the Potency was inconclusive [inhibitor, partial curve, poor fit]. For `Cc1c(Cc2ccccc2)sc(NC(=O)C(C)(C)C)c1C(N)=O`, the Potency was inconclusive [inhibitor, partial curve, poor fit]. With `CC(C)c1ccc(S(=O)(=O)N2CCN(C(C)C(=O)NC3CCCC3)CC2)cc1` (stereo unspecified) the Potency was inconclusive [inhibitor, single point]. In the case of `COc1ccc(NC(=O)c2ccc(-n3cncn3)c([N+](=O)[O-])c2)cc1OC`, the “activity change, negative = inhibition” value is reported as inactive: -5.28%. For `N/C(=N\OC(=O)c1cccc(F)c1)c1cccc([N+](=O)[O-])c1`, the “activity change, negative = inhibition” value was inactive: 24.3%. In the case of `S=c1[nH]nc(-c2cc(-c3ccccc3)n[nH]2)n1/N=C/c1cccc(Cl)c1`, the “activity change, negative = inhibition” value is reported as inactive: 23.9%. For `O=C(NCc1cccs1)c1cc(-c2ccccn2)nc2ccc(Br)cc12`, the Potency was inconclusive [inhibitor, partial curve, poor fit]. For `COc1cc(S(=O)(=O)N2CCOCC2)ccc1NC(=O)COc1ccc(N(C)S(=O)(=O)c2ccc(C)cc2)cc1`, the Potency was inconclusive [inhibitor, partial curve].
